Measurements published in the antibiotic and cytotoxicity screens of Wong et al. (2023).
This is one part of the list.

tested on: HepG2; assay: cytotoxicity call (relative viability < 0.9); conditions: 10 µM

| SMILES | cytotoxicity call |
| --- | --- |
| C[C@H](CO)N1C[C@H](C)[C@H](CN(C)S(=O)(=O)c2ccc(F)cc2)OCCCC[C@H](C)Oc2ccc(NC(=O)C3CCCCC3)cc2C1=O | inactive |
| Cc1ncc(NC(=O)c2ccc(CN3CCN(C)CC3)c(C(F)(F)F)c2)cc1Nc1nccc(-c2cccnc2)n1 | active |
| COc1ccc(S(=O)(=O)N(C)C[C@H]2Oc3c(NC(=O)C4CC4)cccc3C(=O)N([C@H](C)CO)C[C@H]2C)cc1 | inactive |
| C[C@H](CO)N1C[C@H](C)[C@H](CN(C)S(=O)(=O)c2ccccc2)Oc2ccc(NC(=O)CCCN(C)C)cc2C1=O | inactive |
| Nc1ncnc2c1ncn2[C@H]1O[C@@H](COP(=O)(O)OP(=O)(O)OP(=O)(O)O)[C@@H](O)[C@@H]1O | inactive |
| CN1CCN(C(=O)C[C@H]2CC[C@@H]3[C@H](COC[C@@H](O)CN3C(=O)C3CC3)O2)CC1 | inactive |
| C[C@@H]1CN([C@H](C)CO)S(=O)(=O)c2ccc(C#CCC3CCCC3)cc2O[C@@H]1CN(C)C(=O)c1cnccn1 | inactive |
| C[C@@H]1CN([C@@H](C)CO)C(=O)c2cc(NC(=O)Nc3cccc4ccccc34)ccc2O[C@@H](C)CCCCO[C@H]1CN(C)C(=O)CCCN(C)C | inactive |
| CC(C)C#Cc1ccc2c(c1)O[C@@H](CN(C)S(=O)(=O)c1cn(C)cn1)[C@H](C)CN([C@H](C)CO)S2(=O)=O | inactive |
| O=C(C[C@H]1CC[C@H](NC(=O)CN2CCOCC2)[C@H](CO)O1)NCCc1ccncc1 | inactive |
| C[C@@H]1CN([C@@H](C)CO)C(=O)CCCn2cc(nn2)CO[C@@H]1CN(C)S(=O)(=O)c1ccc2c(c1)OCCCO2 | inactive |
| C[C@@H]1CN([C@@H](C)CO)C(=O)c2cccc(NC(=O)Nc3ccc4c(c3)OCO4)c2O[C@@H]1CN(C)C(=O)Nc1cccc2ccccc12 | inactive |
| Cl.O=C1CC2(CCCC2)CC(=O)N1CCCCN1CCN(c2ncccn2)CC1 | active |
| COCC(=O)Nc1ccc2c(c1)C(=O)N(C)[C@@H]1CC[C@H](CC(=O)NC3Cc4ccccc4C3)O[C@@H]1CO2 | inactive |
| C[C@@H]1CN([C@@H](C)CO)C(=O)c2cc(NC(=O)C3CCCCC3)ccc2O[C@@H](C)CCCCO[C@H]1CN(C)C(=O)CCC(F)(F)F | inactive |
| Cc1cc(C(=O)Nc2cccc3c2O[C@H](CN(C)Cc2ccc(C(=O)O)cc2)[C@@H](C)CN([C@@H](C)CO)C3=O)n(C)n1 | inactive |
| C[C@@H]1CN([C@@H](C)CO)C(=O)CCCn2nncc2CO[C@@H]1CN(C)S(=O)(=O)c1ccc(C#N)cc1 | inactive |
| Cc1ccc(S(=O)(=O)N(C)C[C@@H]2OCCCC[C@@H](C)Oc3ccc(NC(=O)NC4CCCCC4)cc3C(=O)N([C@@H](C)CO)C[C@@H]2C)cc1 | inactive |
| Cc1ccc(S(=O)(=O)N(C)C[C@H]2Oc3ccc(NC(=O)c4ccncc4)cc3CC(=O)N([C@@H](C)CO)C[C@H]2C)cc1 | inactive |
| Nc1cc(C(Cl)=C(Cl)Cl)c(S(N)(=O)=O)cc1S(N)(=O)=O | inactive |
